# Some of the results follow. One pool of 16,384 single-stranded DNAs met each Rep nickase domain in vitro for 1 h at 37 °C with 3 µM enzyme; only the middle of the 90-letter strands is printed. A value is the log2 ratio of uncut reads to the pool without enzyme; the lower, the more was cut; hits are not called. Counts are relative to all reads; where an enzyme cuts many sequences, the uncut ones exceed 0.
# Experiments:
# Test in all cases: uncleaved DNA left, log2 of reads against the no-enzyme library (log2 ratio); higher = less cleavage (more negative = more Rep cleavage of the k-mer); sequences stand for … in CTCGTCCG…ACCGGAGA
# [1] = tested on: T1, Rep nickase domain of Muscovy duck circovirus
# T1 sequence (residues 1-111, tag not shown): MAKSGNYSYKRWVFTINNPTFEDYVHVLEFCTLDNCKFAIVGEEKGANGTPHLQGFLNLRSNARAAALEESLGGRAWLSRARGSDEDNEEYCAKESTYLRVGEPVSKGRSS
# Method: (§1)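 A pool of 90-nt single-stranded DNAs with seven random bases just before the constant AC of the nick site (name = the seven bases) was cut by 3 µM recombinant His6-SUMO-tagged Rep nickase domain (300 nM DNA, 50 mM HEPES pH 8.0, 50 mM NaCl, 1 mM MnCl2, 1 h, 37 °C, three replicates). Uncut DNA was amplified and sequenced.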
# [2] = tested on: T2, Rep nickase domain of banana bunchy top virus
# T2 sequence (residues 1-94, tag not shown): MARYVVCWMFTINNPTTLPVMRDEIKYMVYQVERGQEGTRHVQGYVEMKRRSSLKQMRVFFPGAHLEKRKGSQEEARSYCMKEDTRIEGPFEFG
# Method: as §1
# [3] = tested on: T3, Rep nickase domain of cabbage leaf curl virus
# T3 sequence (residues 1-116, tag not shown): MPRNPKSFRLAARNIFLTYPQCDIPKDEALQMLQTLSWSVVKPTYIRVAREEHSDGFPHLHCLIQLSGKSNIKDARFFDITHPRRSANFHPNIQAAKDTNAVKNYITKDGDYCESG
# Method: as §1
# [4] = tested on: T4, Rep nickase domain of chickpea chlorotic dwarf virus
# T4 sequence (residues 1-124, tag not shown): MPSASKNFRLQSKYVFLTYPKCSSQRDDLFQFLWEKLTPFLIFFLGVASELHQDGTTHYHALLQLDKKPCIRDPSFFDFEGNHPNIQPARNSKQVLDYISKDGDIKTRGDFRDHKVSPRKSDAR
# Method: as §1
# [5] = tested on: T5, Rep nickase domain of faba bean necrotic yellows virus
# T5 sequence (residues 1-98, tag not shown): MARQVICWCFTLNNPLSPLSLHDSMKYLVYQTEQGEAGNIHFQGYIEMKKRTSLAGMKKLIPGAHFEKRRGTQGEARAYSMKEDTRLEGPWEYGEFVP
# Method: as §1
# [6] = tested on: T6, Rep nickase domain of maize striate mosaic virus
# T6 sequence (residues 1-117, tag not shown): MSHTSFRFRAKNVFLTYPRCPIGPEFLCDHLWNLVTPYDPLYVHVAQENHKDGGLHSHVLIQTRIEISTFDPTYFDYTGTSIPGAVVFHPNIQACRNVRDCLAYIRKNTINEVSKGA
# Method: as §1
# [7] = tested on: T7, Rep nickase domain of porcine circovirus 2
# T7 sequence (residues 2-116, tag not shown): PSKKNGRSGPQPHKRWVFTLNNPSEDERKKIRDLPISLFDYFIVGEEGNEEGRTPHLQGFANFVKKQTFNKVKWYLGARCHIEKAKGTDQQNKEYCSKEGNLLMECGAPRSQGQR
# Method: as §1
# [8] = tested on: T8, Rep nickase domain of tomato golden mosaic virus
# T8 sequence (residues 1-124, tag not shown): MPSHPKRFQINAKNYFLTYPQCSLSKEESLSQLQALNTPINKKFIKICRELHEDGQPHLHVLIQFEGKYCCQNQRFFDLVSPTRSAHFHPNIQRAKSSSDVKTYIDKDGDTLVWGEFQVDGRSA
# Method: as §1
# [9] = tested on: T9, Rep nickase domain of tomato yellow leaf curl virus
# T9 sequence (residues 1-136, tag not shown): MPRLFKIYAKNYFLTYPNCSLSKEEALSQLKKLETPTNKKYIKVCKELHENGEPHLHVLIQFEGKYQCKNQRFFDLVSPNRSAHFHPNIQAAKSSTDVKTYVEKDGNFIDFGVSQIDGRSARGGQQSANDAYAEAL
# Method: as §1
# [10] = tested on: T10, Rep nickase domain of wheat dwarf virus
# T10 sequence (residues 1-137, tag not shown): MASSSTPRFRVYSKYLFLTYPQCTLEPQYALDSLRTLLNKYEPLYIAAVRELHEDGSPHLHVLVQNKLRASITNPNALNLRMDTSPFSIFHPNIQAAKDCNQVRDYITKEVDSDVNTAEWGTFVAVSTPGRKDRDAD
# Method: as §1
Sequence,uncleaved DNA left (log2) [1],uncleaved DNA left (log2) [2],uncleaved DNA left (log2) [3],uncleaved DNA left (log2) [4],uncleaved DNA left (log2) [5],uncleaved DNA left (log2) [6],uncleaved DNA left (log2) [7],uncleaved DNA left (log2) [8],uncleaved DNA left (log2) [9],uncleaved DNA left (log2) [10]
CGCGATT,-0.0499,-0.0809,-0.244,-0.289,-0.107,0.0654,-0.411,-0.311,-0.285,-0.324
CCTTCGC,0.0443,-0.137,-0.755,-0.876,-0.0788,-1.08,-0.0504,-0.205,-0.123,-0.167
GGTCGGC,-0.0359,-0.0225,0.578,1.26,-0.0966,1.68,0.162,-0.0829,0.00177,0.0753
TGTGTGG,0.0664,-0.0254,0.299,0.417,0.077,0.184,0.233,0.0689,0.0826,0.0922
GATCCGT,0.00457,0.0131,0.0576,-0.0774,-0.0123,-0.406,-0.00437,-0.0237,0.0497,0.0315
CCATACG,0.0932,-0.000763,-0.783,0.127,-0.0374,-0.78,0.0871,-0.0489,0.0441,-0.0456
TGCTGTA,-0.0245,-0.0189,-0.056,0.0825,-0.0673,0.414,-0.158,-0.0757,-0.136,-0.115
AAGGGCC,0.106,0.152,0.175,0.563,0.0811,0.322,0.265,0.192,0.0675,0.0561
GGTATCA,0.0458,0.156,0.561,1.26,0.0785,1.93,0.101,0.0428,0.207,0.252
ACGCGGA,-0.156,-0.184,-0.549,-0.531,-0.125,-0.875,0.0638,-0.0976,-0.097,-0.173
ATCCTTG,-0.209,-0.0983,-0.578,-1.21,-0.11,-0.984,-0.0338,-0.17,-0.112,-0.223
AAGCACA,0.00401,0.115,0.077,-1.26,0.0576,0.387,-0.406,-0.0165,-0.0951,0.0133
CCTACAT,-0.0424,0.0223,0.175,-1.55,-0.176,0.0781,-0.0713,-0.0463,0.0176,0.122
GTATTTG,-0.00405,-2.23e-05,0.0631,0.294,0.0826,-0.331,0.132,0.107,0.0204,0.0802
CTTGGCA,0.032,0.112,-0.328,-0.72,0.114,-0.833,0.096,0.0222,0.131,0.034
GCCTCAC,-0.118,-0.15,0.0847,0.0331,-0.0235,0.186,-0.0321,-0.0413,-0.123,-0.145
ACTGGCT,0.0858,0.147,-0.17,-0.0336,0.1,-0.197,0.165,0.167,0.16,0.0702
TACTGGC,-0.0276,-0.163,-0.331,-0.285,-0.0859,-0.565,-0.0895,-0.0883,-0.0991,-0.0436
GGACCGG,-0.101,-0.00214,0.533,1.45,-0.0886,1.73,0.0456,0.117,0.0162,0.0551
TTCGTAA,0.0134,-0.155,0.00427,-0.225,0.0453,-0.214,-0.0417,0.0485,-0.0606,0.0862
GCAAAGA,0.148,0.1,0.164,0.33,0.0396,-0.459,0.224,0.137,0.0798,0.13

Sequence,uncleaved DNA left (log2) [1],uncleaved DNA left (log2) [2],uncleaved DNA left (log2) [3],uncleaved DNA left (log2) [4],uncleaved DNA left (log2) [5],uncleaved DNA left (log2) [6],uncleaved DNA left (log2) [7],uncleaved DNA left (log2) [8],uncleaved DNA left (log2) [9],uncleaved DNA left (log2) [10]
GGCGGCC,-0.0523,0.0793,0.159,0.864,-0.0599,1.09,0.0367,-0.0221,-0.141,-0.0218
GTCGTCA,0.00436,0.0225,0.299,0.788,-0.00323,1.58,0.0694,-0.0494,-0.00166,-0.013
TTCAAGT,0.0739,0.0858,0.277,-0.188,0.0829,-0.479,-0.0582,-0.0193,0.0933,-0.0134
ACAGCCT,-0.117,-0.0909,-0.5,-2.16,-0.0519,-0.845,-0.0358,-0.0664,-0.18,-0.222
GGCCTGG,-0.0492,0.0512,0.272,0.692,-0.0625,1.22,0.0248,0.157,-0.0948,-0.0117
GTGGAAC,-0.00167,0.0793,0.362,0.872,-0.0359,1.97,0.146,0.165,0.0312,0.0321
AGCGGTC,0.0682,0.0101,0.0155,0.494,-0.0467,0.547,-0.222,-0.00903,-0.0747,0.0085
TCAGACT,0.0476,-0.119,0.0405,-1.15,-0.12,0.749,0.0306,-0.13,-0.0253,0.0531
TTTACTT,-0.094,-0.0668,0.147,-2.46,0.0148,0.303,-0.783,0.00706,0.0741,0.000416
GCATTGC,0.0138,-0.0591,-0.605,0.737,-0.0614,-0.323,0.0903,-0.0452,0.0383,-0.175
AAGGCAC,0.0426,0.0624,-0.0492,0.23,0.00761,0.0153,0.0563,-0.0208,0.00281,0.0147
AGCAAAG,0.0772,0.0648,-0.275,0.124,0.0524,-0.39,0.099,0.0529,0.0438,0.11
AGGAATC,0.142,0.0872,0.311,0.811,0.119,0.542,0.095,0.0621,0.14,0.185
GAGTAGG,0.244,0.124,0.396,0.845,0.123,0.759,0.00886,0.298,0.203,0.233
TAGAGTC,-0.0226,-0.0774,0.0158,-0.291,-0.0162,-0.63,-0.295,-0.111,-0.0295,-0.163
ACGAGGG,0.0266,-0.104,-0.516,-0.198,0.156,-0.96,0.185,0.138,-1.79e-05,-0.0488
AGGACAA,0.22,0.293,1.03,2.26,0.171,2.33,0.407,0.169,0.2,0.306
GCGGGCA,0.0875,0.137,0.87,1.78,-0.0419,2.02,0.164,-0.0189,0.0587,0.113
ACTTTAA,-0.106,-0.0126,-0.258,-0.436,0.0487,-0.721,0.118,0.0741,-0.0313,0.0471
CCGTCGC,0.017,0.0852,-0.333,-0.404,0.0124,-0.512,0.193,0.0725,0.0555,-0.0748
GGCCATA,-0.0362,-0.0841,0.636,1.66,-0.196,2.04,0.115,-0.158,0.059,-0.0268

Sequence,uncleaved DNA left (log2) [1],uncleaved DNA left (log2) [2],uncleaved DNA left (log2) [3],uncleaved DNA left (log2) [4],uncleaved DNA left (log2) [5],uncleaved DNA left (log2) [6],uncleaved DNA left (log2) [7],uncleaved DNA left (log2) [8],uncleaved DNA left (log2) [9],uncleaved DNA left (log2) [10]
AAATCGT,-0.473,-0.0824,-3.7,-2.87,-0.0738,-2.35,-2.91,-1.27,-0.0193,-1.54
TCACGAC,0.0916,0.0355,0.0843,-0.0364,0.0364,-0.316,0.14,0.123,-0.0463,-0.00772
GGGGACC,0.0497,0.106,0.714,1.85,0.0378,2.17,0.191,-0.0277,0.0634,0.0985
CGACCGA,0.00481,-0.0777,-0.0396,-0.00513,0.0908,-0.17,0.0854,-0.0965,0.0453,0.0242
ATAAGTG,0.065,0.0665,-0.708,-0.613,0.0237,-1.1,0.249,0.00779,0.0687,0.0151
CTGACTA,0.0885,0.0504,-0.102,0.0224,0.0527,0.14,-0.016,-0.0382,0.0722,0.0918
TGCGCAA,0.0624,0.114,-0.08,-0.0331,-0.0586,-0.499,0.126,0.123,-0.00482,0.061
GCATTTA,0.125,0.186,0.00221,-0.297,0.12,0.0631,0.13,0.133,0.0909,0.174
ACGCAGG,0.00143,-0.104,-0.511,-0.504,-0.152,-1.04,0.0154,0.0458,-0.114,-0.131
TATGCAA,0.0495,0.146,-0.21,-0.813,0.0427,-1.1,0.0473,0.000146,0.14,0.0101
GCTTGGT,-0.0869,0.0989,0.476,1.72,0.0752,1.26,-0.466,0.116,0.106,0.0527
ACACATG,-0.0434,0.0874,-0.686,-0.229,0.0107,-0.753,0.16,0.00236,0.148,-0.129
GACTTCG,-0.0685,-0.0262,-0.844,-0.64,-0.1,-0.985,0.0993,-0.115,-0.0221,-0.0498
GCAAGAT,0.107,0.139,0.233,0.653,0.0813,0.78,0.204,0.137,0.0258,0.173
ATTCAGA,-0.0468,0.00896,-0.166,-0.327,-0.0605,-0.991,0.0507,-0.0595,-0.0772,-0.127
GATCCAC,0.0465,0.0631,0.285,0.677,0.032,0.681,0.0295,0.0659,0.0836,0.201
TGGGTCA,-0.0126,0.155,0.832,1.81,-0.0171,2.23,0.208,0.0953,0.0932,0.162
GCGTACA,-0.0479,-0.0344,0.232,0.00619,-0.0319,0.869,-0.116,-0.11,-0.0319,0.00692
CATAGGT,0.182,-0.0916,0.422,0.827,0.14,0.785,0.169,0.0365,-0.0633,0.045
GCCGGGG,0.0904,-0.0453,0.74,1.3,-0.0181,1.93,0.181,0.117,-0.125,0.0797
